{"source": "the supplement of paper PMC10441789", "note": "The list shows a part of the results. Antibody binding of pooled human sera (four to six donors per pool; dilution not stated) to peptides of the Trypanosoma cruzi antigen TSSA on microarrays. Quantile-normalised fluorescence in arbitrary units, mean of duplicate arrays; higher = more binding. No active / inactive call. The uninfected pools are read here as the healthy donors of the same country. The strongest signals lie near the top of the scale (about 60,000).", "data": [{"system": "pooled sera of chronic Chagas disease patients, Argentina", "test": "antibody binding signal (normalised fluorescence) (arbitrary fluorescence units); higher = stronger serum antibody binding to peptide", "protocol": "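Microarray of 15-residue peptides over residues 30-55 of Trypanosoma cruzi TSSAII, each with 1 to 10 substitutions at naturally variable positions, probed with one serum pool per country.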", "values": [{"sequence": "GTEKKPAAGGTPSPS", "antibody binding signal": 2420}, {"sequence": "TEKKAATGGAPSQSG", "antibody binding signal": 1890}, {"sequence": "GTDKKPATGGTPSQP", "antibody binding signal": 585}, {"sequence": "EKKAAAGGTPSPPGA", "antibody binding signal": 581}, {"sequence": "GTDNKTATGGAPSQP", "antibody binding signal": 752}, {"sequence": "PPSGTENKTAAGGAP", "antibody binding signal": 46600}, {"sequence": "KDKKTATGETPSPPG", "antibody binding signal": 201}, {"sequence": "TENKAAAGEAPSQPG", "antibody binding signal": 37400}, {"sequence": "GTDKKPAAGEAPSPS", "antibody binding signal": 537}, {"sequence": "TISTPPSGKEKKTAT", "antibody binding signal": 14300}, {"sequence": "TPPSGTDKKTAAGET", "antibody binding signal": 15400}, {"sequence": "PPSGKDNKTAAGGTP", "antibody binding signal": 2170}, {"sequence": "GKEKKTATGGAPSPP", "antibody binding signal": 2980}, {"sequence": "TSSTPPSGKENKTAA", "antibody binding signal": 18200}, {"sequence": "ENKPATGEAPSPSGA", "antibody binding signal": 45700}, {"sequence": "KPAAGETPSPPGASS", "antibody binding signal": 325}, {"sequence": "DNKTAAGGTPSPPGA", "antibody binding signal": 1250}, {"sequence": "TENKPATGEAPSPPG", "antibody binding signal": 45700}, {"sequence": "SGKDNKPATGEAPSP", "antibody binding signal": 43300}, {"sequence": "STPPSGKENKTAAGE", "antibody binding signal": 39400}, {"sequence": "ENKAATGETPSPSGA", "antibody binding signal": 4810}, {"sequence": "GKDKKTAAGGTPSPS", "antibody binding signal": 300}, {"sequence": "TENKTATGGAPSPPG", "antibody binding signal": 26900}, {"sequence": "SGKENKPATGGAPSP", "antibody binding signal": 5400}, {"sequence": "SGKENKAATGGAPSQ", "antibody binding signal": 3100}, {"sequence": "GKDKKPATGGTPSQS", "antibody binding signal": 539}, {"sequence": "DNKPAAGETPSQSGA", "antibody binding signal": 268}, {"sequence": "TDNKPATGGTPSQPG", "antibody binding signal": 861}, {"sequence": "STPPSGTENKAATGE", "antibody binding signal": 47400}, {"sequence": "DNKAAAGETPSPSGA", "antibody binding signal": 391}, {"sequence": "KKPAAGETPSQSGAS", "antibody binding signal": 202}, {"sequence": "TPPSGTDNKPAAGEA", "antibody binding signal": 46900}, {"sequence": "KKTATGEAPSQPGAS", "antibody binding signal": 4920}, {"sequence": "GTDNKAAAGEAPSQS", "antibody binding signal": 460}, {"sequence": "TDKKPAAGETPSQSG", "antibody binding signal": 521}, {"sequence": "STPPSGKEKKAATGG", "antibody binding signal": 13700}, {"sequence": "PSGTEKKTAAGGTPS", "antibody binding signal": 9090}, {"sequence": "SGTEKKAAAGETPSP", "antibody binding signal": 495}, {"sequence": "STPPSGTENKPATGG", "antibody binding signal": 52100}, {"sequence": "TEKKTAAGEAPSPPG", "antibody binding signal": 676}]}]}
